± gives the standard deviation. Whole data set: some 6,600 sequences, median “pre-steady-state target cleavage rate” near 0.07, cut for the highest 2% near 0.72. The entries are a selection whose mix differs from that of the whole data set.
Test system: MIWI (PIWIL1) piRISC loaded with Kctd7 piRNA (30 nt)
Test: pre-steady-state target cleavage rate (min^-1); MIWI and MILI are mouse PIWI proteins and EfPiwi is from a freshwater sponge; tags in brackets are library labels; higher = faster piRNA-guided slicing of the target
Conditions: guide: Kctd7 piRNA 5'p-UGUUAAUCUCUCAGAGAAGGUGACAGUGAU; auxiliary factor: 500 nM mouse GTSF1
Procedure, shortened: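 At 33 °C in HEPES–potassium acetate buffer, a transcribed, DNA-blocked target RNA library […] was exposed for 0–8 or 0–960 min to 1 nM active affinity-purified piRISC carrying a single synthetic guide, with or without 500 nM GTSF1 partner protein. Uncleaved targets were sequenced and normalised to depth and to weakly complementary targets. With three trials pooled and k3 capped at 0.0001 min^-1, a burst-and-steady-state fit produced the pre-steady-state cleavage rate.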
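Also: 1 nM active piRISC with 0.1 nM target library at 33 °C single turnover.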

Point of comparison: UUCACUGUCACGAUCUCUGAGAGAUUAACA, “pre-steady-state target cleavage rate” value 0.628 ± 0.039. Against it:
- UAGACUGUCACCUUCUCUGAGAGAUUUAACA — within error, 0.548 ± 0.048
- UACACUGUCUCCUUCUCUGACAGAUUAACA — lower, 0.365 ± 0.025
- UAGACUGUCACCUUCUCAGUGAGAUUAACA — lower, 0.0175 ± 0.0032
- UAGUGUGUCACCUUCUCUGAGAGAUAAACA — lower, 0.313 ± 0.033
- UAGAGAGUCACCUUCUCUGAGAGAUAUUGA — lower, 0.0271 ± 0.0098
- UACACUGUCACCUUCUCUGAGAGUAUAAGA — lower, 0.00892 ± 0.0052
- UAGUGUGUCACCUUCACUGAGAGAUAAACA — lower, 0.16 ± 0.021
- UACACUGUCACCUUCUGUGAGAGAUUAAGA — lower, 0.053 ± 0.017
- UAGUCUGUCACCAUCUGUGAGAGAUUAACA — lower, 0.142 ± 0.013
- UAGUGACACACCUUCACUGAGAGAUUAUGA — lower, 0.00944 ± 0.0049
- UAGUGACAGACCUUCUCUGGGAGAUUAACA — lower, 0.0545 ± 0.0082
- AUCACAGUCACCUACUCUGAGAGAUUAACA — within error, 0.679 ± 0.039
- UUCACUGAGUCCUUCUCUGAGAGAUUAACA — lower, 0.402 ± 0.026
- UAGUGACUCUCCUUCUCAGAGAGAUUAACA — lower, 0.00663 ± 0.0029
- UAGUGACUACCUUCUCUGAGAGAUUAACA — lower, 0.175 ± 0.016
- UAGUGACAGUGCUUUUCUGAGAGAUUAACA — lower, 0.00599 ± 0.002
- UUCACUGUCACCUAGUCUGAGAGAUUAUGA — lower, 0.043 ± 0.011
- UUCACUGUCACCUUCUCUGAGAGAAAAAGA — lower, 0.0143 ± 0.0062
- UAGUGAGUCGCCUUCUCUGAGAGAUUAACA — lower, 0.52 ± 0.045
- UAGACUGUCACCUUCUCUGAGUGAUUAUCA — lower, 0.00363 ± 0.0018
- UAGACUGUCACCUUCUCUGAGAGAAUUAACA — lower, 0.442 ± 0.072
- AUCACUGUCACCUUCUCUGAGAGAUUCAACA — within error, 0.563 ± 0.083
- UAGUGACAGUCCUUGUCUGAGUGAUUAACA — lower, 0.00435 ± 0.0023
- UUCACUGUCACCUUCACUGAGAGAUUAAGA — lower, 0.134 ± 0.025
- AUCACUGUCACCUUCUCUCAGAGAUAAACA — lower, 0.064 ± 0.0084
- UUCACUGUCACCUUGUCUGACAGAUUAACA — lower, 0.243 ± 0.031
- UAGUGAGUCACCUUCUCUGUGAGAUUAACA — lower, 0.292 ± 0.016
- AUGCACUGUCACCUUCUCUGAGAGAUUAACA — higher, 0.775 ± 0.056
- UAGUGACACACCUUCUCUGUGAGAUUAACA — lower, 0.165 ± 0.011
- UAGUGACAGUCCUUCUCUGAGAGAUAUAACA — lower, 0.00882 ± 0.0029
- UACACUGUCACCUACACUGAGAGAUUAACA — lower, 0.269 ± 0.026
- UACACUGUCACCUUCUCUGAGAGAAAUUGA — lower, 0.0381 ± 0.019
- UUCACUGUCACCUUCUGUGAGAGAUUAAGA — lower, 0.0367 ± 0.012
- UAGUGAGUGACCUUCUCUGAGAGAUUAUGA — lower, 0.0593 ± 0.011
- UAGUGACACACCAUCUCUGAGAGAUUAACA — lower, 0.274 ± 0.027
- UACACUGUCACCUUCUCUGAGACUUUUUGA — lower, 0.011 ± 0.0051
- UAGUCUGUCACCUUCUCUGAGAGAUAAUCA — lower, 0.0812 ± 0.017
- AUCACUGUCUCCUUCUCUGAGAGUUUAACA — within error, 0.525 ± 0.084
- UAGUGACAGUCCUUCUCUGAGAGAUUGAACA — lower, 0.0191 ± 0.004
- UUCACUGUCUCCUUCUCUCAGAGAUUAACA — lower, 0.104 ± 0.011
- AUCACUGUGACCUACUCUGAGAGAUUAACA — within error, 0.631 ± 0.046
- UACACUGUCACCUUCUCACAGAGAUUAACA — lower, 0.0289 ± 0.011
- UUCACUGUCACCUUCUCUGAGAGAUUAUACA — lower, 0.296 ± 0.035
- UAGUCUGUCACCUUCUCUGAGCGAUUAACA — lower, 0.146 ± 0.013
- UACACUGUCACCGUUCUCUGAGAGAUUAACA — within error, 0.586 ± 0.03
- UAGUCUGACACCUUCUCUCAGAGAUUAACA — lower, 0.0588 ± 0.005
- AUCACUGUCACCUUCUCAUGAGAGAUUAACA — lower, 0.155 ± 0.054
- UAGUCUGUCACCUUCUCUGUGAGAUUAUCA — lower, 0.0651 ± 0.012
- UAGUGUGUGUGCUUCUCUGAGAGAUUAACA — lower, 0.0752 ± 0.0098
- UAGUGUGUGACCUUCUCUGAGAGUUUAACA — lower, 0.115 ± 0.022
- UAGUGAGUCACCUUCUCACUGAGAUUAACA — lower, 0.00684 ± 0.0034
- UAGUGUGUCACCUUCUCUGAGAGAUUGAACA — lower, 0.124 ± 0.018
- UAGUGACACACCUUAUCUGAGAGAUUAACA — lower, 0.22 ± 0.016
- UAGUGACAGACCUUCUCGGAGAGAUUAACA — lower, 0.00462 ± 0.0035
- UAGUGUCUCACCUUCUCUCAGAGAUUAACA — lower, 0.0742 ± 0.0091
- UUCACUGUCACCUUCUCUGAGAGUAAAACA — lower, 0.0908 ± 0.013
- UAGACUGUCACCUUCUCUGAGAGAUUUUGA — lower, 0.0119 ± 0.0044
- AUCACUGUCACGUUCUCUGAGAGAUUAACA — higher, 0.821 ± 0.043
- UAGACUGUCACACUUCUCUGAGAGAUUAACA — within error, 0.607 ± 0.04
- UAGUGACAGACCUUCUCUGAGAUAUUAACA — lower, 0.0437 ± 0.011
- AUCACUGUCACCUUCUCUGAGAGAUAUUCA — lower, 0.349 ± 0.081
- AACACUGUGACCUUCUCUGAGAGAUUAACA — within error, 0.652 ± 0.034
- UAGUGAGUCACCUUCUCUGAAGAUUAACA — lower, 0.0113 ± 0.0044
- UAGACUGUCAGGUUCUCUGAGAGAUUAAGA — lower, 0.0291 ± 0.006
- UUCACACACACCUUCUCUGAGAGAUUAUGA — lower, 0.153 ± 0.035
- UAGUGACAGUCCUUCUCUGAGAAAUUAACA — lower, 0.0168 ± 0.004
- UUCAGUGUCACCUUCUCUGACAGAUUAACA — lower, 0.324 ± 0.027
- UAGUGACUCACCUUUCUCUGAGAGAUUAACA — lower, 0.118 ± 0.014
- AUCACUCUCACCUUCUCUGAGAGAUUUUGA — lower, 0.105 ± 0.029
- UACACUGUCACCUUCUCUCAGUGAUUAACA — lower, 0.00572 ± 0.0047
- UAGUGACUCUGCUUCUCUGAGAGAUUAACA — lower, 0.00843 ± 0.0019

From the supplement of paper PMC10338343
